B1: PhoQ; a variant is named by its letters at X, in order, P23837 (parent)
chain: MKKLLRLFFPLSLRVRFLLATAAVVLVLSLAYGMVALIGYSVSFDKTTFRLLRGESNLFYTLAKWENNKLHVELPENIDKQSPTMTLIYDENGQLLWAQRDVPWLMKMIQPDWLKSNGFHEIEADVNDTSLLLSGDHSIQQQLQEVREDDDDAEMTHSVAVNVYPATSRMPKLTIVVVDTIPVELKSSYMVWSWFIYVLSANLLLVIPLLWVAAWWSLRPIEALAKEVRELEEHNRELLNPATTRELTSLVRNLNRLLKSERERYDKYRTTLTDLTHSLKTPLXXLQXXLRSLRSEKMSVSDAEPVMLEQISRISQQIGYYLHRASMRGGTLLSRELHPVAPLLDNLTSALNKVYQRKGVNISLDISPEISFVGEQNDFVEVMGNVLDNACKYCLEFVEISARQTDEHLYIVVEDDGPGIPLSKREVIFDRGQRVDTLRPGQGVGLAVAREITEQYEGKIVAGESMLGGARMEVIFGRQHSAPKDE

This is one part of the list.

The test covers variants of B1. As to the kind of experiment: enrichment ratio after two sorts for PhoP signalling (ratio (wild type AVST 3.29)); higher = more functional. To be noted: with PhoP (E. coli).
YCMD: the enrichment ratio is no more than 0.25. Take RGVA: the enrichment ratio was no more than 0.25. Consider KYHV, for which the enrichment ratio was no more than 0.25. For WSLS, the enrichment ratio was determined as 0.37. As to RRYT, the enrichment ratio was no more than 0.25. As to WDWK, the enrichment ratio is no more than 0.25.

As for RPWI, the enrichment ratio is no more than 0.25.

For IIMC, the enrichment ratio is no more than 0.25. For the variant FQIS, the enrichment ratio was no more than 0.25. For NPCH, the enrichment ratio is no more than 0.25.

Regarding KEMN, the enrichment ratio was no more than 0.25. To GNLV belongs 11.9; to RMHQ, no more than 0.25; to SQAG, 25.9. With VLIW, the enrichment ratio is no more than 0.25. With FSCP, the enrichment ratio was no more than 0.25. With MYVH, the enrichment ratio was no more than 0.25. Regarding AHNR, the enrichment ratio is no more than 0.25. On to KKDT, for which the enrichment ratio is no more than 0.25. For VIGN, the enrichment ratio was no more than 0.25. SMDS: the enrichment ratio was no more than 0.25.

As to QPRD, the enrichment ratio is no more than 0.25. The result for VKYF reads no more than 0.25; that for WFVI, no more than 0.25; that for DETR, no more than 0.25. As for AAPL, the enrichment ratio is 0.392.

With RYCQ, the enrichment ratio was no more than 0.25.

With FQLL, the enrichment ratio was 5.35.

As to GRHN, the enrichment ratio is no more than 0.25. For the variant DAPE, the enrichment ratio was no more than 0.25.

Consider LDSL, for which the enrichment ratio was no more than 0.25. As to TEQE, the enrichment ratio was no more than 0.25. To YMFF belongs no more than 0.25.

FCGP: the enrichment ratio was no more than 0.25. In the case of VHLA, the enrichment ratio was no more than 0.25. The result for PLLY reads no more than 0.25; that for NLRS, no more than 0.25.

Consider FWQA, for which the enrichment ratio is no more than 0.25.

Consider DNTS, for which the enrichment ratio was no more than 0.25. The result for WQKF reads no more than 0.25. In the case of WFSN, the enrichment ratio is no more than 0.25.

YHGM: the enrichment ratio is no more than 0.25.

For the variant WKAR, the enrichment ratio was no more than 0.25. In the case of NNLT, the enrichment ratio is no more than 0.25.

Turning to HRVR, the enrichment ratio was no more than 0.25.

With QAIG, the enrichment ratio was no more than 0.25.

On to DLMK, for which the enrichment ratio is no more than 0.25. Turning to CIVI, the enrichment ratio is no more than 0.25. The result for MNLW reads no more than 0.25; that for SMGL, 5.54; that for VWSK, no more than 0.25. Regarding GWCI, the enrichment ratio is no more than 0.25. Take TPAR: the enrichment ratio was no more than 0.25.

On to KCIK, for which the enrichment ratio is no more than 0.25.

For FLRH, the enrichment ratio was no more than 0.25.

Regarding RQRL, the enrichment ratio is no more than 0.25.

Regarding DAFG, the enrichment ratio is no more than 0.25.

In the case of PPQD, the enrichment ratio is no more than 0.25. On to KSMK, for which the enrichment ratio was no more than 0.25. Regarding LPQH, the enrichment ratio was no more than 0.25. PEQC: the enrichment ratio was no more than 0.25. On to WETN, for which the enrichment ratio was no more than 0.25. The result for HVMK reads no more than 0.25. On to STTS, for which the enrichment ratio is 8.49. Consider WKNG, for which the enrichment ratio is no more than 0.25. As for HEEV, the enrichment ratio is no more than 0.25. Turning to WNLQ, the enrichment ratio is no more than 0.25. As to LDTD, the enrichment ratio was no more than 0.25. On to LICK, for which the enrichment ratio is no more than 0.25. NGAW: the enrichment ratio was no more than 0.25. Regarding HVFQ, the enrichment ratio is no more than 0.25. As for FIWH, the enrichment ratio is no more than 0.25. On to KSCC, for which the enrichment ratio was no more than 0.25.

As to WMFT, the enrichment ratio is no more than 0.25. As to EFEL, the enrichment ratio is no more than 0.25. For MYDQ, the enrichment ratio was no more than 0.25.

As to WFAL, the enrichment ratio is no more than 0.25. The result for YASF reads no more than 0.25; that for NWCR, no more than 0.25. For RDYL, the enrichment ratio is no more than 0.25. To PDEL belongs no more than 0.25; to WQDW, no more than 0.25; to LGRV, no more than 0.25. To GIAG belongs 15.6; to SEQA, no more than 0.25. On to MIHT, for which the enrichment ratio is no more than 0.25. As to KQQL, the enrichment ratio was no more than 0.25.

With STSL, the enrichment ratio was determined as 9.89. For DLGD, the enrichment ratio is no more than 0.25. In the case of SEDW, the enrichment ratio is no more than 0.25.

For GFCN, the enrichment ratio was no more than 0.25. Consider LLLY, for which the enrichment ratio was no more than 0.25. To RWAI belongs no more than 0.25; to MAMF, 10.2. Turning to SHWL, the enrichment ratio was no more than 0.25. MAAS: the enrichment ratio turned out to be 1.31. For SYPI, the enrichment ratio is no more than 0.25.

Regarding FTRW, the enrichment ratio was no more than 0.25. NGGR: the enrichment ratio was no more than 0.25. For YCVH, the enrichment ratio is no more than 0.25. As to GAKC, the enrichment ratio is no more than 0.25. In the case of DKDL, the enrichment ratio was no more than 0.25.

With VGAI, the enrichment ratio stood at 3.8.

Turning to PPFP, the enrichment ratio was no more than 0.25. Turning to PHYA, the enrichment ratio was no more than 0.25. In the case of MRWV, the enrichment ratio was no more than 0.25. To KILG belongs 1.13; to RLQK, no more than 0.25. In the case of NRPG, the enrichment ratio was no more than 0.25. To NGTF belongs no more than 0.25; to DTIL, no more than 0.25. For NAGP, the enrichment ratio was no more than 0.25.

Take DRVL: the enrichment ratio is no more than 0.25.

As to YMDN, the enrichment ratio is no more than 0.25. As for LMHV, the enrichment ratio was no more than 0.25. To ITIW belongs no more than 0.25; to WPGD, no more than 0.25; to MHKH, no more than 0.25.

For the variant NNYL, the enrichment ratio is no more than 0.25. Consider FMMP, for which the enrichment ratio is no more than 0.25. With APYQ, the enrichment ratio was no more than 0.25.

As to FYEC, the enrichment ratio is no more than 0.25. The result for KQQS reads no more than 0.25; that for NHEY, no more than 0.25. The result for PIVI reads no more than 0.25; that for YQVH, no more than 0.25; that for NECY, no more than 0.25.

For RPTT, the enrichment ratio is no more than 0.25. As for TFTS, the enrichment ratio came to 6.18.

As for DQGW, the enrichment ratio was no more than 0.25. Regarding RIML, the enrichment ratio was no more than 0.25. WRGW: the enrichment ratio is no more than 0.25. To DLLA belongs no more than 0.25; to TISK, 3.65; to KCDE, no more than 0.25. For IRVD, the enrichment ratio is no more than 0.25. Take LCEP: the enrichment ratio was no more than 0.25.

For YNVE, the enrichment ratio is no more than 0.25. In the case of RPVM, the enrichment ratio was no more than 0.25. On to AQFF, for which the enrichment ratio is no more than 0.25. Turning to QPWW, the enrichment ratio was no more than 0.25.

On to ISRE, for which the enrichment ratio was no more than 0.25. Regarding SYGS, the enrichment ratio is no more than 0.25. With RTAS, the enrichment ratio was no more than 0.25. Regarding AMEH, the enrichment ratio is no more than 0.25. With GWHV, the enrichment ratio is no more than 0.25.

In the case of YVIT, the enrichment ratio is no more than 0.25. On to YAAA, for which the enrichment ratio is no more than 0.25.

For the variant QMQS, the enrichment ratio was no more than 0.25. The result for DPHW reads no more than 0.25; that for TSHR, no more than 0.25; that for GGIW, no more than 0.25.

For QYKW, the enrichment ratio was no more than 0.25.

These data come from a collection of fitness landscapes (doi:10.1126/science.1257360).
